Test results reported in a collection of fitness landscapes (doi:10.1126/science.1257360).
The other results are listed elsewhere or left out.

B1: PhoQ; a variant is named by its letters at X, in order, P23837 (parent)
chain: MKKLLRLFFPLSLRVRFLLATAAVVLVLSLAYGMVALIGYSVSFDKTTFRLLRGESNLFYTLAKWENNKLHVELPENIDKQSPTMTLIYDENGQLLWAQRDVPWLMKMIQPDWLKSNGFHEIEADVNDTSLLLSGDHSIQQQLQEVREDDDDAEMTHSVAVNVYPATSRMPKLTIVVVDTIPVELKSSYMVWSWFIYVLSANLLLVIPLLWVAAWWSLRPIEALAKEVRELEEHNRELLNPATTRELTSLVRNLNRLLKSERERYDKYRTTLTDLTHSLKTPLXXLQXXLRSLRSEKMSVSDAEPVMLEQISRISQQIGYYLHRASMRGGTLLSRELHPVAPLLDNLTSALNKVYQRKGVNISLDISPEISFVGEQNDFVEVMGNVLDNACKYCLEFVEISARQTDEHLYIVVEDDGPGIPLSKREVIFDRGQRVDTLRPGQGVGLAVAREITEQYEGKIVAGESMLGGARMEVIFGRQHSAPKDE

Variants of: B1
Assay: enrichment ratio after two sorts for PhoP signalling (ratio (wild type AVST 3.29)); higher = more functional
Conditions: with PhoP (E. coli)

AGQR and QSDW cannot be ordered by enrichment ratio: at most 0.25 for the first, at most 0.25 for the second.

LCCQ and LIEG cannot be ordered by enrichment ratio: at most 0.25 for the first, at most 0.25 for the second.

AWGD and CVLS cannot be ordered by enrichment ratio: at most 0.25 for the first, at most 0.25 for the second.

HPVS and KHNR cannot be ordered by enrichment ratio: at most 0.25 for the first, at most 0.25 for the second.

Compared with MAAQ, AIVL is higher in enrichment ratio: 5.77 for the first, 6.07 for the second.

MDRG and APWC cannot be ordered by enrichment ratio: at most 0.25 for the first, at most 0.25 for the second.

Going from DPCY to MEHI, the enrichment ratio rises from at most 0.25 to 4.2.

EVLQ and DMIA cannot be ordered by enrichment ratio: at most 0.25 for the first, at most 0.25 for the second.

NPYP and GNIP cannot be ordered by enrichment ratio: at most 0.25 for the first, at most 0.25 for the second.

Going from DTMH to AACN, the enrichment ratio rises from at most 0.25 to 12.7.

CLMF and NSQV cannot be ordered by enrichment ratio: at most 0.25 for the first, at most 0.25 for the second.

VESR and WRHK cannot be ordered by enrichment ratio: at most 0.25 for the first, at most 0.25 for the second.

AYPE and VNER cannot be ordered by enrichment ratio: at most 0.25 for the first, at most 0.25 for the second.

TQIR and WHDD cannot be ordered by enrichment ratio: at most 0.25 for the first, at most 0.25 for the second.

VPMK and MCIN cannot be ordered by enrichment ratio: at most 0.25 for the first, at most 0.25 for the second.

HENS and TDGI cannot be ordered by enrichment ratio: at most 0.25 for the first, at most 0.25 for the second.

NIMT and PMHI cannot be ordered by enrichment ratio: at most 0.25 for the first, at most 0.25 for the second.

MKAC and RMEN cannot be ordered by enrichment ratio: at most 0.25 for the first, at most 0.25 for the second.

FACH and YCAL cannot be ordered by enrichment ratio: at most 0.25 for the first, at most 0.25 for the second.

IGGQ and HTVV cannot be ordered by enrichment ratio: at most 0.25 for the first, at most 0.25 for the second.

PTQK and IWCQ cannot be ordered by enrichment ratio: at most 0.25 for the first, at most 0.25 for the second.

LYTT and SHNK cannot be ordered by enrichment ratio: at most 0.25 for the first, at most 0.25 for the second.

NPNR and PTIK cannot be ordered by enrichment ratio: at most 0.25 for the first, at most 0.25 for the second.

KAGG and NSVD cannot be ordered by enrichment ratio: at most 0.25 for the first, at most 0.25 for the second.

Going from TCMT to MPNI, the enrichment ratio falls from 14.5 to at most 0.25.

YFES and MVHH cannot be ordered by enrichment ratio: at most 0.25 for the first, at most 0.25 for the second.

VFFW and DKMG cannot be ordered by enrichment ratio: at most 0.25 for the first, at most 0.25 for the second.

AYLA and WPYV cannot be ordered by enrichment ratio: at most 0.25 for the first, at most 0.25 for the second.

RPKF and THWP cannot be ordered by enrichment ratio: at most 0.25 for the first, at most 0.25 for the second.

KNCH and EEHP cannot be ordered by enrichment ratio: at most 0.25 for the first, at most 0.25 for the second.

Compared with VMSH, VYAP is lower in enrichment ratio: 0.366 for the first, at most 0.25 for the second.

Compared with IWMG, MGAS is higher in enrichment ratio: at most 0.25 for the first, 7.69 for the second.

VPKH and DGCD cannot be ordered by enrichment ratio: at most 0.25 for the first, at most 0.25 for the second.

MYLA and VLEM cannot be ordered by enrichment ratio: at most 0.25 for the first, at most 0.25 for the second.

SPAQ and EWLV cannot be ordered by enrichment ratio: at most 0.25 for the first, at most 0.25 for the second.

First: MEMG
Second: LNDA
The enrichment ratio of the first is higher: 12.8 for the first, at most 0.25 for the second.

RESR and CNHF cannot be ordered by enrichment ratio: at most 0.25 for the first, at most 0.25 for the second.

RQGC and RCLR cannot be ordered by enrichment ratio: at most 0.25 for the first, at most 0.25 for the second.

FTQA and PICR cannot be ordered by enrichment ratio: at most 0.25 for the first, at most 0.25 for the second.

Going from TNGL to NPQK, the enrichment ratio falls from 12.6 to at most 0.25.

PQHR and YWLD cannot be ordered by enrichment ratio: at most 0.25 for the first, at most 0.25 for the second.

IEPW and LYEL cannot be ordered by enrichment ratio: at most 0.25 for the first, at most 0.25 for the second.

AYMP and VKCK cannot be ordered by enrichment ratio: at most 0.25 for the first, at most 0.25 for the second.

First: ENSH
Second: AMCL
The enrichment ratio of the first is lower: at most 0.25 for the first, 15.7 for the second.

First: HNFS
Second: VTLT
The enrichment ratio of the first is lower: at most 0.25 for the first, 2.14 for the second.

SNQP and NKCI cannot be ordered by enrichment ratio: at most 0.25 for the first, at most 0.25 for the second.

FPNW and FCSA cannot be ordered by enrichment ratio: at most 0.25 for the first, at most 0.25 for the second.

Going from MGIR to HRNQ, the enrichment ratio rises from at most 0.25 to 0.435.

TWDG and PLIM cannot be ordered by enrichment ratio: at most 0.25 for the first, at most 0.25 for the second.

KCTR and KPTE cannot be ordered by enrichment ratio: at most 0.25 for the first, at most 0.25 for the second.

NGWR and RGDY cannot be ordered by enrichment ratio: at most 0.25 for the first, at most 0.25 for the second.

ASYY and RKTF cannot be ordered by enrichment ratio: at most 0.25 for the first, at most 0.25 for the second.

NIWC and YGQQ cannot be ordered by enrichment ratio: at most 0.25 for the first, at most 0.25 for the second.

WYYY and MFRD cannot be ordered by enrichment ratio: at most 0.25 for the first, at most 0.25 for the second.

HWGW and TLMG cannot be ordered by enrichment ratio: at most 0.25 for the first, at most 0.25 for the second.

PHWF and PIAV cannot be ordered by enrichment ratio: at most 0.25 for the first, at most 0.25 for the second.

PYVV and KPSC cannot be ordered by enrichment ratio: at most 0.25 for the first, at most 0.25 for the second.

QRNE and PNDK cannot be ordered by enrichment ratio: at most 0.25 for the first, at most 0.25 for the second.

YLSP and WPVK cannot be ordered by enrichment ratio: at most 0.25 for the first, at most 0.25 for the second.

Compared with IDKV, TASA is higher in enrichment ratio: at most 0.25 for the first, 9.05 for the second.

FGRL and SKWK cannot be ordered by enrichment ratio: at most 0.25 for the first, at most 0.25 for the second.

MAKE and ERWL cannot be ordered by enrichment ratio: at most 0.25 for the first, at most 0.25 for the second.

WLHP and KVAF cannot be ordered by enrichment ratio: at most 0.25 for the first, at most 0.25 for the second.

IDHV and ASMP cannot be ordered by enrichment ratio: at most 0.25 for the first, at most 0.25 for the second.

EQWT and QDTC cannot be ordered by enrichment ratio: at most 0.25 for the first, at most 0.25 for the second.

KENT and REML cannot be ordered by enrichment ratio: at most 0.25 for the first, at most 0.25 for the second.

SLMW and NPDR cannot be ordered by enrichment ratio: at most 0.25 for the first, at most 0.25 for the second.

EMVD and WAPQ cannot be ordered by enrichment ratio: at most 0.25 for the first, at most 0.25 for the second.

Going from SLPM to SAWM, the enrichment ratio falls from 4.28 to 3.72.

MAEK and MDHW cannot be ordered by enrichment ratio: at most 0.25 for the first, at most 0.25 for the second.

LNHY and HFGA cannot be ordered by enrichment ratio: at most 0.25 for the first, at most 0.25 for the second.

LNHP and LMCM cannot be ordered by enrichment ratio: at most 0.25 for the first, at most 0.25 for the second.

FESS and IVMT cannot be ordered by enrichment ratio: at most 0.25 for the first, at most 0.25 for the second.

DSLK and YIRF cannot be ordered by enrichment ratio: at most 0.25 for the first, at most 0.25 for the second.

FWYQ and FNPD cannot be ordered by enrichment ratio: at most 0.25 for the first, at most 0.25 for the second.

DYPK and FKGM cannot be ordered by enrichment ratio: at most 0.25 for the first, at most 0.25 for the second.

YMLQ gave an enrichment ratio of at most 0.25.
